In all, about 110,000 compounds were measured (“z-score”: median about -0.1, highest 2% from about 2 on). Some of the results follow. Activity calls are given as the source filed them.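 How the source made its calls: active means z-score in the third read window above 3 or below -3; inactive means the rest.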
biological target: Metabotropic glutamate receptor 8 (Rattus norvegicus) (UniProt P70579); test: rat mGluR8 modulators via GIRK flux, primary screen, cell-based, thallium flux, HTS (AID 488969); settings: HEK293 rat mGluR8, GIRK (G protein-gated inwardly rectifying potassium channel) thallium flux, FluoZin2; at 10 µM; stronger effect = higher value; submaximal glutamate (EC20) added with thallium
Chain of UniProt P70579 (P70579 whole entry, looked up): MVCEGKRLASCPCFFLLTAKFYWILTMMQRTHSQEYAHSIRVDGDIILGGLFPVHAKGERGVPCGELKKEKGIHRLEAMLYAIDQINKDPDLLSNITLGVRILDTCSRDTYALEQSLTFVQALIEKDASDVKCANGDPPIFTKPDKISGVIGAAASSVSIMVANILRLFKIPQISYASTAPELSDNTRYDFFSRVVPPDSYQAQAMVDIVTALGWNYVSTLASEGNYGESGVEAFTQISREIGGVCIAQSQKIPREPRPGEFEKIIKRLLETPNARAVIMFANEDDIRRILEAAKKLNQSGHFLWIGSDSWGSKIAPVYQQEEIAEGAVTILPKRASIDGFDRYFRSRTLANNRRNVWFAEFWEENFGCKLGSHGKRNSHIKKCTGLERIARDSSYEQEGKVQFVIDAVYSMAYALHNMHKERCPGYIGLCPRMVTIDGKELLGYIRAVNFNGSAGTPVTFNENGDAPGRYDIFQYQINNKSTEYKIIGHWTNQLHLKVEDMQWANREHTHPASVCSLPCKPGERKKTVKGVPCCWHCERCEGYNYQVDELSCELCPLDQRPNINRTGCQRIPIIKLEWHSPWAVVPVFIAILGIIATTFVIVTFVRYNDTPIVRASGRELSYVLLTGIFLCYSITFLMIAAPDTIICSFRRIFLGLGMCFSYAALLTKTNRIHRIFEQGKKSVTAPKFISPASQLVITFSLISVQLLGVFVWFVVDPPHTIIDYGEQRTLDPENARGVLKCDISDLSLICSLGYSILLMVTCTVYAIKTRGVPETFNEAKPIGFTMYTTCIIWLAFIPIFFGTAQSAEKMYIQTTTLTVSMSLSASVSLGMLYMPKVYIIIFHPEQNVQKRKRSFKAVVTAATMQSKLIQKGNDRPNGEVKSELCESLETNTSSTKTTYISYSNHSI

Row | Compound | z-score
1 | COc1cc(/C=N/NC(=O)CCn2nnc3ccccc32)ccc1O | -0.659
2 | O=C(Nc1cc(=O)[nH]c2ncnn12)c1ccc(Cl)cc1Cl | 0.137
3 | CCOc1cc(/C=N/NC(=O)CN2CCCCC2)ccc1OCc1ccc(Cl)cc1 | -0.409
4 | CCCC(=O)N(c1ccc2oc(C)c(C(C)=O)c2c1)S(=O)(=O)c1ccc(C)c([N+](=O)[O-])c1 | -0.189
5 | O=C1NCCN1C(=O)c1cccc(Cl)c1 | -0.0542
6 | CCCn1c(=O)c2ccccc2n2c(SCC(=O)N3CCc4ccccc4C3)nnc12 | -2.77
7 | Cc1c(NS(=O)(=O)c2ccccc2)cc(Cl)c(O)c1C | 0.212
8 | COCCCNC(=O)c1c(N)n(-c2cccc(S(N)(=O)=O)c2)c2nc3ccccc3nc12 | -0.153
9 | O=C(COC(=O)c1ccc(Br)o1)NCC1CCCO1 (stereo not given) | -0.414
10 | CCCCn1c(C)csc1=Nc1cccnc1 | -0.113
11 | CCOC(=O)c1ccccc1NC(=O)CN1C(=O)CCS(=O)(=O)c2ccccc21 | -0.24
12 | CC(=NCCCn1ccnc1)c1c(O)n(Cc2ccccc2)c(=O)[nH]c1=O | -0.187
13 | O=C(NC1=NCCS1)NC12CC3CC(CC(C3)C1)C2 | -0.286
14 | CCOC(=O)CCC(=O)OCC(=O)NC(C)C1CC2CCC1C2 (stereo not given) | -0.78
15 | O=C(Nc1nc2ccc(Cl)cc2s1)c1ccco1 | -0.371
16 | CC1=CC(C)(C)N(C(=O)C(C)N2C(=O)c3ccccc3C2=O)c2c(C)cc(C)cc21 (stereo not given) | 0.764
17 | COc1ccccc1-n1cnnc1SCC(=O)NCc1cccs1 | -0.439
18 | O=C(NNC(=O)c1ccc([N+](=O)[O-])cc1)c1ccncc1 | -0.096
19 | Cc1ccc(C(=O)COC(=O)CNC(=O)c2cccs2)cc1 | -0.718
20 | COc1ccc(C2CC(C(F)(F)F)n3nc(C(=O)O)c(Cl)c3N2)cc1OC (stereo not given) | -0.686
21 | COc1ccc(CCNC(=O)COc2ccc(-c3ccc(C#N)cc3)cc2)cc1 | -0.197
22 | CCNC(=O)/C(=C\c1ccccc1)NC(=O)/C=C/c1ccccc1 | 0.216

Row | Compound | z-score
23 | Cc1cc(S(=O)(=O)n2cnc3cc([N+](=O)[O-])ccc32)ccc1Cl | -0.268
24 | CCN(CC)S(=O)(=O)c1ccc(N2CCOCC2)c(NC(=O)c2ccc3ccccc3c2)c1 | -0.18
25 | Cc1cc(C)c(C#N)c(SCc2cn3c(C)cccc3n2)n1 | -0.458
26 | CCC1(C)Cc2c(sc3[nH]c(=S)n(Cc4ccccc4)c(=O)c23)CO1 (stereo not given) | active: 8.14
27 | O=C(Nc1ccc(Nc2ccccc2)cc1)N1CCOCC1 | 0.011
28 | CC(=O)Oc1ccc(NC(=O)Cc2ccccc2)cc1 | 0.286
29 | COc1ccc(OCC(=O)NNC(=O)C2CCCO2)cc1 (stereo not given) | -0.116
30 | O=C(CSc1nnc(-c2cccs2)n1Cc1ccco1)Nc1ccc2c(c1)OCO2 | -0.403
31 | O=C(Oc1ccccc1)c1cccc(COC(=O)c2cnccn2)c1 | active: -3.31
32 | O=C(NC(Cc1ccccc1)C(=O)NCc1ccccn1)c1ccco1 (stereo not given) | 0.299
33 | CC1(C)CN(O)CCN1O | 0.0275
34 | N#C/C(C(=O)N1CCCCC1)=C1/N=C(N)c2ccccc21 | -0.458
35 | CCCNC(=O)Cn1c(=O)/c(=C\c2ccc(-c3cccc([N+](=O)[O-])c3)o2)s/c1=C\C(=O)C(C)(C)C | -0.27
36 | Cc1ccccc1C(=O)Nc1ccccc1 | -0.133
37 | COc1ccc(NC(=O)CSc2nccn2-c2ccccc2)cc1 | -0.21
38 | CCOc1ncccc1C(=O)N(CC)CC(=O)Nc1ccc(NC(C)=O)cc1 | -0.339
39 | O=C1CSC(c2c(F)cccc2Cl)N1c1cccc(F)c1 (stereo not given) | -0.355
40 | Cc1ccc(-n2nnnc2SCC(=O)Nc2ccc3c(c2)COC3=O)cc1C | 0.959
41 | COC(=O)c1[nH]c2ccc(C)cc2c1NC(=O)CN1CCN(c2ccccc2)CC1 | -0.322
42 | CCOC(=O)c1c(-c2ccc(C)o2)csc1NC(=S)NC(=O)c1cccs1 | active: 3.05
43 | O=C(N/N=C/c1cccs1)c1cc(-c2ccncc2)nc2ccccc12 | -0.317
44 | CCOc1ccc2c(c1)-c1c(ssc1=S)C(C)(C)N2C | -0.11

Row | Compound | z-score
45 | Cc1cc(NC(=O)CN2CCN(C/C=C/c3ccccc3)CC2)c([N+](=O)[O-])cc1C | -0.0608
46 | O=C(O)c1ccc(-c2ccc(Cl)cc2Cl)o1 | -0.251
47 | CC(=O)Nc1ccc(S(=O)(=O)NCc2csc(-c3cccnc3)n2)cc1 | 0.282
48 | O=C(Nc1nnc(-c2ccc(Cl)cc2)o1)Nc1ccccc1Cl | 1.85
49 | CNC(=O)c1sc(-c2ccc(Cl)cc2)nc1C | -0.0179
50 | Cc1ccc(NC2=NCC(=O)N2c2ccc3c(c2)OCCO3)c(C)c1 | 0.0348
51 | O=C(CCC(=O)Nc1ccccc1)NNC(=O)c1cccs1 | -0.138
52 | CCn1c(SCC(=O)N2CCN(c3ccccc3)CC2)nnc1-c1ccncc1 | 0.0506
53 | COc1ccc(Nc2ncnc3scc(-c4ccc(OC)cc4)c23)cc1 | -0.391
54 | CCC1=Nc2ccccc2-c2nnc(SC)nc2O1 | -0.667
55 | FC(F)(F)c1cccc(CON=C2CCN(c3ncc(C(F)(F)F)cc3Cl)CC2)c1 | -0.0477
56 | COc1ccc(C(=O)NC(=O)Nc2ncccc2C)cc1 | -0.148
57 | Cc1ccc(NC(=O)CNC(=O)c2ccccc2F)cc1Cl | -0.0793
58 | c1ccc(-n2nnnc2-c2cnc(-c3cccnc3)nc2-c2cccs2)cc1 | -1.53
59 | CN(C)c1ccc(NC(=O)CN2CCC(N3CCCCC3)CC2)cc1 | -0.0883
60 | CCCOc1ccc(N2C(=O)CC(SC(=NCC)Nc3cccc(F)c3)C2=O)cc1 (stereo not given) | 0.042
61 | CC(Sc1nc(N2CCOCC2)c2c(c1C#N)CC(C)(C)OC2)C(=O)Nc1ccccc1 (stereo not given) | -0.506
62 | CC1=C(C(=O)OC(C)C)C(c2ccsc2)NC(=O)N1C (stereo not given) | -0.181
63 | CCOc1ccc(N=c2cc(-c3ccc(OC)cc3)oc3ccccc23)cc1 | -0.124
64 | CN1CCc2c(C#N)c(N3CCCCC3)nc(N3CCOCC3)c2C1 | 0.551
65 | O=C(Nc1ccc(-c2nc3ccccc3s2)c(O)c1)C1=COCCO1 | -0.294
66 | CCOC(=O)C(NC(=O)NCc1ccccc1)(OCC)C(F)(F)F (stereo not given) | 0.191

Row | Compound | z-score
67 | COC(=O)C1C2C=CC3(CN(Cc4cccs4)C(=O)C13)O2 (stereo not given) | -0.516
68 | CCCCCC(=O)Nc1c(-c2cccs2)c(=O)c2ccccc2n1C | 0.588
69 | Cc1ccc(S(=O)(=O)Oc2cccc(/C=N/n3cnnc3)c2)cc1 | -0.158
70 | CCN(CC)S(=O)(=O)c1cccc(NC(=O)C(=O)c2c(-c3ccccc3)cc3ccccn23)c1 | -0.947
71 | CCOc1ccc(NC(=S)Nc2ccc3nsnc3c2)cc1 | 0.109
72 | Cc1nc2ccc(NC(=O)c3ccc(F)c(S(=O)(=O)N4CCOCC4)c3)cc2s1 | 0.182
73 | Cn1c(=O)n(CC(=O)Nc2ccc(F)cc2)c2ccccc21 | -0.0749
74 | Cc1cc(O)c2c(-c3ccccc3)cc(=O)oc2c1 | 2.16
75 | O=C(CSc1nnc(COc2ccc3c(c2)CCCC3)o1)Nc1ccc(F)cc1 | 1.96
76 | CN(C)C=NC(=O)c1ccc([N+](=O)[O-])c(CS(=O)(=O)c2ccc(Cl)cc2)c1 | -0.0395
77 | COC(=O)c1ccccc1NC(=S)NC(=O)COc1ccc(C)cc1 | 2.28
78 | C=CCN(c1ccc(C(=O)Nc2ccc(C)c(C)c2)cc1)S(C)(=O)=O | -0.412
79 | COc1cccc(C(=O)Nc2cccc(NC(C)=O)c2)c1 | -1.49
80 | Cc1ccc(C)c(S(=O)(=O)N2C(=S)NC(=O)C2C(C)C)c1 (stereo not given) | 0.0469
81 | COC(=O)c1ccc(N2CCC(C)CC2)c(N)c1 | -0.0527
82 | Cc1ccc(-n2cc(C(=O)c3ccc(F)cc3)nn2)cc1Cl | 0.781
83 | Nc1ccc(-c2nc3ccc(C(=O)O)cc3s2)cc1 | -0.0804
84 | Cc1[nH]c(=O)[nH]c(=O)c1NC(=O)CSc1ncccc1-c1nc2ccccc2[nH]1 | -0.0429
85 | COc1cccc(C(=O)Nc2c(C)n[nH]c2C)c1 | 0.713
86 | CC1CCc2c(sc(NC(=O)c3ccc(Cn4cc([N+](=O)[O-])cn4)o3)c2C#N)C1 (stereo not given) | 0.0147
87 | CC1(C)SC(=S)N(NC(=O)Nc2ccccc2)C1N(O)C(=O)Nc1ccccc1 (stereo not given) | 0.626
88 | N#Cc1ccccc1OCC(=O)Nc1c(C(=O)C2CC2)oc2ccccc12 | -0.314

Row | Compound | z-score
89 | Cc1ccc(NC(=O)C(OC(=O)c2ccc(F)cc2)c2ccccc2)cc1Cl (stereo not given) | -0.0515
90 | COc1ccc([N+](=O)[O-])cc1COc1ccc2c(-c3ccccc3)cc(=O)oc2c1 | -0.166
91 | N/C(=N\c1nc2ccccc2o1)NC(=O)c1ccc(F)cc1 | 0.186
92 | Cc1ccccc1-c1nnn(CC(=O)NCc2ccc3c(c2)OCO3)n1 | 1.38
93 | COCCn1c(=NC(=O)/C=C/c2ccccc2Cl)sc2cc(NC(C)=O)ccc21 | 0.151
94 | CN(Cc1ccco1)C(=O)Cn1c(=O)oc2cc(S(=O)(=O)NCc3ccccc3)ccc21 | -0.17
95 | O=C(CSc1ncnc2ccccc12)NCCCO | 0.434
96 | O=C1C2C3C=CC(C2C(=O)N1C1CCCCC1)C1C2C(=O)N(C4CCCCC4)C(=O)C2C31 (stereo not given) | -0.242
97 | COc1ccc(S(=O)(=O)NCC(c2cccnc2)N2CCN(c3ccccc3OC)CC2)cc1C (stereo not given) | -0.264
98 | O=[N+]([O-])c1cccc(Cl)c1N1CCOCC1 | -0.119
99 | O=C(Nc1ccc2c(c1)OCCO2)c1cc(-c2ccccc2)nc2ccccc12 | -0.364
100 | CCO/C=C/C(O)(CNC(=O)COc1ccccc1F)C(F)(F)F (stereo not given) | 0.157
101 | O=C(Nc1nnc(Cc2ccccc2)s1)c1cccs1 | -0.126
102 | COc1ccc(S(=O)(=O)Nc2ccccc2C(=O)Nc2nc(-c3ccc(F)cc3)cs2)cc1OC | -1.09
103 | O=C(Nc1ccc(Oc2ccccc2)cc1)C1CCCO1 (stereo not given) | 1.65
104 | Cc1cc(C)n(C(=O)CNC(=O)Cc2ccccc2)n1 | -0.101
105 | CCc1nnc(NC(=O)CSc2nc3cc4c(cc3cc2C)OCCO4)s1 | -0.118
106 | CCOc1cccc(OCCOc2ccc(C(=O)c3ccccc3)cc2)c1 | 0.25
107 | O=C(Cc1ccc(F)cc1)Nc1ccc(F)c([N+](=O)[O-])c1 | 0.318
108 | COC(=O)c1nnn(-c2nonc2N)c1CSc1nc2ccccc2o1 | -0.0333
109 | CCOC(=O)c1sc(C)c(C(=O)NC2CCCCC2)c1N | active: 3.33
110 | COc1ccc([N+](=O)[O-])cc1NC(=O)c1cn(-c2ccc(Cl)cc2)c(=O)c2ccccc12 | -0.39
